Data as given in the RNAGym collection of RNA variant scans (doi:10.7554/elife.90254).
Read counts are not given, so values of variants with three or more changes are uncertain.

B1: LINE1-full (parent)
chain: UACGUAGGUGGUUUUCCCCUGAUAGUGCUAAGGGGGCCUGGAAGUUUGGACUGGGCAGAGCUCAACACAGCGUGGCAAAGUGGCUGUGGCUAGACUGCCUCUCUGGAUUCCUCGUCACUCAGCAGGGCAUCUCUGAGAGAAAUGCC

Variants of: B1
Assay: self-cleavage, relative activity (ratio to wild type); higher = more cleavage; in vitro, sequencing; the parent is a self-cleaving ribozyme
With UACGUAGGUGGUUUUCCCCUGAUAGAGCUAAGGGGGCCCGGAAGUUUGGACUGGGCAGAGCUCAACACAGCGUGGCAAAGUGGCUGUGGCUAGACAGCCUCUCUGGAUUCCUCGUCACUCAGCAGGGCAUCUCCGAGAGAAAUGCC [U26A U39C U96A U134C] the self-cleavage was 0.05. With UACGUAGGUGGUUUUCCCCUGAUAGUGCUAAGGGGGCCUGGAAGUUUGGGCUGGGCAGAGCUCAUCACAGCGUGGCAAAGUGGCUGUGGCUAGACUGCCUCUCUGGAUUCCCCGUCACUCAGCAGGGCAUCUCUGAGAGAAGUGCC [A50G A65U U112C A142G] the self-cleavage was 0.26. Variant UACGUAGGUGGUCUUCCCCUGAUAGUGCUAAGGGGGCCUGGAGGUUUGGACUGGGCAGAGCUCAACACAGCGUGGCAAAGUGGCUGUGGCUAGACUGCCUCUCUGGAUUCCCCGUCACUCAGCAGGGCAUCUCUGAGAGAAAUGCC [U13C A43G U112C] has a self-cleavage of 0.57. For UGCGUAGGUGGUUUUCCCCCGGUAGUACUAAGGGGGCCUGGAAGUUUGGACUGGGCAGAGCUCAACACGGCGUGGCAAAGUGGCUGCGGCUAGACUGCCUCUCUGAAUUCCUCGUCACUCAGCAGGGCAUCUCUGAGAGAAAUGCC [A2G U20C A22G G27A A69G U87C G106A], the self-cleavage was 1.7. UACGUAGGUGGUUUUCCCCCGAUAGUGCUAAGGGGGCCUGGAAGUUUGGACUGGGCAGUGCUCAACCCAGCGUGGCAAAGUGGCUGUGGCUAGACUGCCUCUCUGGAUUCCUCGUCACUCAGCAGGGCAUCUCUGAGAGAAAUGCC [U20C A59U A67C] gave a self-cleavage of 0.07. Work on UACGUAGGUGGUUUUCCCCUGAUAGUGCUAAGUGGGCCAGGAAGUUUGGACUGGGCAGGGCUCAACACAGCGUGGCAAAGUGGCUGUGGCUAGACUGCCUCCCUGGAUUCCUCGUCACUCAGCAGGGCAUCUCUGAGAGAAAUGCC [G33U U39A A59G U102C] yielded a self-cleavage of 0.13. UACGUAGGUGGCUUUCCCCUGAUAGUGCUAAGGGGGCCUGGGAGUUUGGACUGGGCGGAGCUCAACACAGCGUGGCAAAGAGGCUGCGGCUAGACUGCCUCUCUGGAUUCCUCGUCACUCAGCAGGGCAUCUCUGAGAGAAAUGCC [U12C A42G A57G U81A U87C] showed a self-cleavage of 0. Work on UACGUAGGUGGGUUUCCUCUGAUAGUGCUAAGGGGGCCUGGAAGCUUGGACUGGGCAGAGCUCAACACAGCGUGGCAAAGUGGCUGUGGCUAGACUGCCUCUCUGGAUUCCUCGUCACUCAGCAGGGCAUCUCUGAGAGAAAUGCC [U12G C18U U45C] yielded a self-cleavage of 1.1. For UACGUAGGUGGUUUUCCCCCGAUAGUGCUAAGGGGGCCUGGAAGUUUGGACUGGGUAGAGCUCAACACAGCGUGGCAAAGUGGCAGAGGCUAGACUGCCUCUCUGGAUUCCUCGUCACUCAGCAGGGCAUCUCUGAGAGAAAUGCC [U20C C56U U85A U87A], the self-cleavage was 0.03. In the case of UACGUAGGUGGUUUUCCCCUGAUAGUGCUAAGGGGGCCUGGAAGUUCGGACUGGGCAGAGCUCAACUCAGCGCGGCAAAGUGGCUGUGGCUAGACUGCCUCUCUGGAUUCCUCGUCACUCAGCAGGGCAUCUCUGAGAGAAAUGCC [U47C A67U U73C], the self-cleavage is reported as 0. UACGUAGGUGGUUUUCCCCUGAUAGUGCUAAGGGGGCCUGGGAGUUUGGACUGGGCUGAGCUCAACACAGCGUGGCAAGGUGGCUGUGGCUAGACUGCCUCUCUGGAUUCCUCGUCACUCAGCAGGGCACCUCUGAGAGAAAUGCC [A42G A57U A79G U130C] gave a self-cleavage of 0. UACGUAGGUGGUUUUCCCCCGAUAGUGCUAAGGGGGCCCGGAAGUUUGGACAGGGCAGAGCUCAACACAGCGUGGCAAAGUGGCUGUGGCUAGACUGCCUCUCUGGAUUCCUCGUCACUCAGCAGGGCAUCUCUGAGAGAAAUGCC [U20C U39C U52A] gave a self-cleavage of 2.26. With UACGUAGGUGGACUUCCCCUGAUAGUGCUAAGGGGGCCUGGAAGUUUGGACUGGGCAGAGCUCAACACAGCGUGGCAAAGUGGCUGUGGCUAGACUGCCUCUCAGGAUUCCUCGUCACUCAGCAGGGCAUCUCUGAGAGAAAUGCC [U12A U13C U104A] the self-cleavage was 0. In the case of UACGUAGGUGGUUUUCCCCUGAUAGUGCUAAGGGGGCCUGGAGGUUUGGACUGGGCAGAGUUCAACACAGCGUGGCAAAGUGGCUGUGGCUGGACUGCCUCUCGGGAUUCCUCGUCACUCAGCAGGGCAUCCCUGAGAGAAAUGCC [A43G C61U A92G U104G U132C], the self-cleavage is reported as 0. Variant UACGUAGGUGGUUUUCCCCUGAUAGUGCUAGGGGGGCCUGGAAGUUUGGACUGGGCAGAGCUCAACACAGCGAGGCAAAGCGGCUGUUGCUAGACUGCCUCUCUGGAUUCCUCGUCACUCAGCAGGGCAUCUCUGAGAGAAAUGCC [A31G U73A U81C G88U] has a self-cleavage of 0. UACGUAGGUGGUCUUCCCCUGAUAGUGCUAAGGGGGCCUGGAAGUUUGGACUGGGCAGAGCACAACACAGGGUGGCAAAGUGGCUGUGGCUAGACUGCCUCUCUGGAUUCCUCGUCACUCAGCGGGGCAUCUCCGGGAGAAAUGCC [U13C U62A C71G A124G U134C A136G] showed a self-cleavage of 0. UACGUAGGUGGGUUCCCCCUGAUAGUGCUAAGGGGGCCUGAAAGUUUGGACUGGGCAGAGCUCAACACAGCGUGGCAAAGUGGCUGUGGCUAGACUGCCUCUCUGGAUUCCUCGUCACUCAGCAGGGCAUCUCUGAGAGAGAUGCC [U12G U15C G41A A141G] showed a self-cleavage of 0.98. With UACGUAGGUGGUUUUCCCCCGAAAGUGCUAAGGGGGCCUGGAGGUUUGGGCUGGGCAGAGCUCAACACAGCGUGGCAAAGUGGCUGUGGCUAGACUGCCUCUCUGGAUUCCUCGUCACUCAGCAGGGCAUCUCUAAGAGAAAUGCC [U20C U23A A43G A50G G135A] the self-cleavage was 2.3. In the case of UACGUAGGUGGCUUUCCCCUGAUAGUGCUAAGGGGGCCUGGAAGUUUGGACUGGGCAGAGCUCAACGCAGCGUGGCAAAGUGGCUGUGGCUAGACUGCCUCUCUGGACUCCUCGUCACUCAGCAGGGCAUCUCUGAGAGAAAUGCC [U12C A67G U108C], the self-cleavage is reported as 0. UACGUAGGUGGUUUUCCCCUGAUAGUGCUAAGGGGGCCUGGAAGUUUGGACUGGGCAGAGCUCAACCCAGCGUGGCAAAGAGGCUGUGGCUAGACAGCCUCUCUGGAUUCCUCGUCGCUCAGCAGGGCAUCUCUGAGAGAAAUGCC [A67C U81A U96A A117G] showed a self-cleavage of 0. Work on UACGUAGGUGGUUCUCCCCUGAUAGUGCUAAGGGGGCCUGGAAGUUUGGACUGGGCAGAGCUCAACACAGCGUGGCAAAGUGGCUGAGGCUAGACUGCCUCUCUGGAUUCCUCUUCACUCAGCAGAGCAUCUCUGAGAGAGAUGCC [U14C U87A G114U G126A A141G] yielded a self-cleavage of 0.1. For UACGUAGGUGGUUAUCCCCUGAUAGAGCUAAGGGGGCCUGGAAGUCUGGACUGGGCAGAGCUCAACUCUGCGUGGCAAAGUGGCUGUGGCUAGACUGCCUCUCUGGAUUCCUCGUCACUCAGCAGGGCAUCUCUGAGAGAAAUGCC [U14A U26A U46C A67U A69U], the self-cleavage was 0.03. UACGUAGGUGGUUUUCCCCUGAUAGUGCUAAGGGGGCCUGGAAGUUUAGACUGGGCAGAGCUCGACACAGCGUGGCAAAGUGGCUGUGGCUAGACUGCCUCUCUGGAUUCCUCGUCACUCAGCAGGGCAUCUCUGAAAGAAAUGCC [G48A A64G G137A] gave a self-cleavage of 0.16. UACGUAGGUGGUUUUCCCCUGAUAGUGCUAAGGGGGCCUGGAAGUUUGGACUGGGCAGAGCUCAACUCAGCGUGGCAAAGUGGCUGUGGCUAGACUGUCUCUCUGGAUUCCUCGUCACUCAGCAGGGCAUCUCUGAGAGAAACGCC [A67U C98U U143C] showed a self-cleavage of 0.01. Work on UACGUAGGUGGUUUUCCCCUGAUAGUGCUAAGGGGGCCUGGAAGUUUGGACUGGGCAGUGCUCAACACAGCGUGGCAAAGUGGCUGUGGCUAGUCCGCCUCUCUGGAUUCCUCGUCACUCAGCAGGGCAUCUCUGAGAGAGAUGCC [A59U A94U U96C A141G] yielded a self-cleavage of 0.18. UACGUAGGUGGCUUUCCCCUGAUAGUGCUAAGGGGGCCUGGAAGUUAGGACUGGGCAGAGCCCAACACAGCGUGGCAAAGUGGCCGUGGCUAGACUGCCUCUCUGGAUUCCUCGCCACUCAGCAGGGCAUCUCUGAGAGAAAUGCC [U12C U47A U62C U85C U115C] gave a self-cleavage of 0. UACGUAGGUGGUUUUCCCCUGAUAGUGCUAAGGGGGCCUGGAAGUUUGGGCUGGGCAGAGCUCAACACAGCGUGGCAGAGUGGCUGUGGCUAGACUGCCUCUCUGGAAUCCUCGUCACUCAGCAGGGCAUCCCUGAGAGAAAUGCC [A50G A78G U108A U132C] gave a self-cleavage of 0.73. Work on UUCGUAGGUGGUUUUCCCCUGAUAGUGCUAAGGGGGCCUGGAAGUUUGGACUGGGCAGAGCUCAACGCAGCGUGGCAAAGUGGCUGUGGCUAGACUGCCUCUCUGGAUUCCUCGUCGCUCAGCAGGGCAUCUCUGAGAGAAAUGCC [A2U A67G A117G] yielded a self-cleavage of 0. Variant UACGUAGGUGGUUUUCCCCUGAUAGGGCUAAGGGGGCCUGGAAGUUUGGACUGGGCGGAGCUCAACACGGCGUGGCAAAGUGGCUGUGGCUAGACAGCCUCUCUGGAUUCCUCGUCACUCAGCAGGGCAUCUCUGAGAGAAAUGCC [U26G A57G A69G U96A] has a self-cleavage of 0. With UACGUAGGUGGUUUUCCCCUGAUAGUGCUAAGGGGGCCUGGAAGUUUGGACUGGGCAGAGCUCAACACAGCGUGGCAAAGUGGCUGUGGCUAGACUGCCUCUCUGGAUUCCUCGUCACUCUGCAGGGCAUCUCAGAGAGGAAUGCC [A121U U134A A140G] the self-cleavage was 0.3. UACGUAGGUGGUUUUCCCCUGAUAGUGCUAAGGGGGCCUGGAAGGUUGGACUGGGCAGAGCUCAACACAGCGUGGUAAAGUGGCUGUGGCUAGACUGCCUCUCUGGAAUCCUCGUCACUCAGCAGGGCAUCUCUGAGAGAAAUGCC [U45G C76U U108A] gave a self-cleavage of 1.91. Work on UACGUAGGUGGUUUUCCCCUGAUAGUGCUAAGGGGGCCUGGAAGUUUGGACUGGGCAGAGCUCAACACAGCGUGGCCAAGUGGCUGUGGCUAGACUGCCUCUCUGGAUUCCUCGUCACUCAGCGGGGCACCUCUGAGAGAAAUGCC [A77C A124G U130C] yielded a self-cleavage of 0.48. Variant UACGUAGGUGGUUUUCCCCUGAUGGUGCUAAGGGGGCCUGGAAGUUUGGACUGGGCAGAGCUCAACACAGCGUGGCAAAGAGGCUGUGGCUAGACUGCCUCUCUGGAUUUCCCGUCACUCAGCAGGACAUCCCUGAGAGAAAUGCC [A24G U81A C110U U112C G127A U132C] has a self-cleavage of 1.72. UACGUAGGUGGUUUUCCCCUGAUAGUGCUAAGGGGGCCUGGAAGCUUGGACUGGGCAGAGCUCAACGCAGCGUGGCAAAGUGGCUGUGGCUAGACAGCCUCUCUGGAUUCCUCGUCACUCAGCAGGGCAUCUCUGAGAGAAAUGCC [U45C A67G U96A] gave a self-cleavage of 0. Variant UACGUUGGUGGUUUUCCCCUGAUAGUGCUAAGGGGGCCUGGAAGUCUGGACUGGGCAGAGCUCAACACAGCGUGGCAAAGUGGCUGUGGCUAGCCUGCCUCUCUGGAUUCCUCGUCACUCAGCAGGGCAUCUCUGAGAGAAAUGCC [A6U U46C A94C] has a self-cleavage of 0.12. Variant UACGUAGGUGGUUUUCCCCUGAUAGUGCUAAGGGGGCCUGGAAGUUUGGACUGGGCAGAGCUCAACACAGCGUGGCAAGGUGGCUGUGGCUGGACUGCCUCUCUGGAUUCCUCGUCACUCAGCAGGGCAUCUCUGUGAGAAAUACC [A79G A92G A136U G144A] has a self-cleavage of 0. Variant UACGUGGGUGGUUUUCCCCUGAUAGUGCUAAGGGGGCCUGGAAGUUUGGACUGGGCAGAGCUCAGCACAGCGUGGCAAAGUGGCUGUGGCUAGACUGCCUCUCUGGAUUCCUCGUCACUCAGCUGGGCAUCUCUGAGAGAAAUGCC [A6G A65G A124U] has a self-cleavage of 0.34. Work on UACGUAGGUGGUUUCCCCCUGAUAGUGCUAAGGGGGCCUGGAAGUUUGGACUGGGCAGAGCUCAACACAGCGUGGCUAAGUGGCUGAGGCUAGACUGCCUCUCUGGAUUCCUCGUCACUCAGCAGGGCAUCUCUGAGAGAAAUGCC [U15C A77U U87A] yielded a self-cleavage of 0.11. Variant UACGUAGGUGGUUUUCCCCUGAUAGUGCUAAGGGGGCCUGGAAGUUUGGACUGGGCAGCGCUCAACACAGCGCGGCAAAGUAGCUGUGGCUAGACUGCCUCUCUGGAUUCCUCGUCACUCAGCAGGGCAUCUCUGAGGGAAAUGCC [A59C U73C G82A A138G] has a self-cleavage of 2.18.
